Experimental data published in the supplement of paper PMC8674133.
Substitutions are numbered along the chain they refer to. Recombinant human monoclonal antibodies (heavy:light variable regions). ELISA EC50 on the named antigen, from 10 µg/ml down; IC50 / IC90 against spike pseudovirus on 293T-ACE2 cells, 48 h; lower = stronger. Calls: IC50 above 1,000 ng/ml = non-neutralizing; EC50 above 2,000 ng/ml = non-binder. The source prints 1000 for neutralization that was not reached; it is given as >1000 ng/ml. A few antibodies were first reported in earlier work of the same group.

B1: C1384 (protein)
chain 1: EVQLVESGGGLVQPGGSLRLSCTASGLTVSSNYMSWVRQAPGKGLEWVSVIYSGGSTFYADSVKGRFTISRDNSKNTLFLQMNSLRAEDTAVYYCARDVYEGAFDIWGQGTMVTVSS
chain 2: DIQLTQSPSFLSASVGDRVTVTCRASQGISNYLAWYQQKPGKAPKLLIYAASTLQSGVPSRFSGSGSGTEFTLTISSLQPEDFATYYCQQLSTYPPRSSFGQGTKLEIK
B2: C1381 (protein)
chain 1: EVQLVESGGGLVQPGGSLRLSCAASGFTFRSYDMHWVRQVIGKGLEWVSAIGTAGDTFYPDSVKGRFTISRENAKNSLYLQMNSLRAGDTAVYYCARGPRGYYDRTGHFYRNWYFELWGRGTLVTVSS
chain 2: QSALTQPASVSGSPGQSITISCTGTSSDVGGYNYVSWYQHHPGKAPKLMIYEVSNRPSGVSNRFSGSKSGNTASLTISGLQAEDEADYFCSSYTTSITLVLFGGGTKLTVL
B3: C1380 (protein)
chain 1: QLQLQESGPGLVKPSETLSLTCTVSGGSISSSTYYWGWIRQPPGKGLEWIGSIYYSGSTFYNPSLKSRVTISVDTSKNQFSLKLNSVTAADTAVYYCASQFVGYSGWYLGNNWFDSWGQGTLVTVSS
chain 2: QSVLTQPPSVSGAPGQRVTISCTGSSSNIGAVYDVQWYQHLPGTAPKLLIYGNRYRPSGVPDRFSGSKSGTSASLAITGLQAEDEADYYCQSFDNSLSGSVFGGGTKLTVL
B4: C1379 (protein)
chain 1: VQLVESGGGVVQPGRSLRLSCAASGFTFSSYGMHWVRQAPGKGLDWVAIISYDGSKKYYADSVKGRVTISRDNSKNTLYLQMNSLRTEDTAVYYCAKDAALYYDLWSGYNYFDYWGQGTLVTVSS
chain 2: DIQMTQSPSSLSASVGDRVTITCRASQGISNSLAWYQQKPGKAPKVLLYAASRLESGVPSRFSGSGSGTDYTLTISSLQPEDFATYYCQQYYSTPRTFGQGTKVEIK
B5: C2018 (protein)
chain 1: QVQLVESGGGLVKPGGSLRLSCAASGFTFSDYYMTWIRQAPGKGLEWVSYISSSGSTIYYADSVKGRFTISRDNAKNSLYLQMNSLRAEDTAVYYCARDSAGNWFDSRHYGMDVWGQGTTVTVSS
chain 2: DIQMTQSPSSLSASVGDRVTITCRASQGISNYLAWYQQKPGKVPKLLIYAASTLQSGVPSRFSGSGSGTDFTLTISSLQPEDVATYYCQKYNSARFTFGPGTKVDIK
B6: C1382 (protein)
chain 1: QLQLQESGPGLLKPSETLFLTCTVSGASISSSTYYWGWIRQPPGKGLEWIGSIYYSGSTYYNPSLKSRVTISVDTSKNQFSLKLSSVPAADTAVYYCARLVRHFGSRGFGAFDYWGQGTLVTVSS
chain 2: QSALTQPASVSGSPGQSITISCTGTSSDVGGYDYVSWYQQHPGKAPKLMIYEVSNRPSGVSNRFSGSKSGNTASLTISGLQAEDEADYYCSSYTTSVLFGGGTKLTVL
B7: C1355 (protein)
chain 1: QLQLQESGPGLVKPSETLSLTCTVSGGSISSGSYYWGWIRQPPGKGLEWIGSIFYSGITYYNSSLKSRVTISVDTSKNQFSLKVTSVTAADTAVYYCARHVRVDYDWDYWGQGTLVTVSS
chain 2: QSALTQPASVSGSPGQSITISCTGSSSDVGGYNLVSWYQQHPGKAPKLMIYEATKRPSGVSNRFSGSVSGNTASLTISGLRAEDEADYYCCSYAGIWLFGGGTKLTVL
B8: C1292 (protein)
chain 1: QVQLVQSGAEVKKPGASVKVSCKASENTFSNHYMHWVRQAPGQGLEWMGIINPSAGSTTYAQKFQGRVTMTGDTSTSTVYMELSSLRSEDTAVYYCARDVVFVPAASGMDVWGQGTTVTVSS
chain 2: IQMTQSPSSLSASVGDRVTITCRASQGIRNDLGWYQQKPGKAPKLLIYAASSLQSGVPSRFSGSGSGTDFTLTISSLQPEDFATYYCLQDYNYPWTFGQGTKVEIK
B9: C1287 (protein)
chain 1: EVQLVESGGGLVQPGGSLRLSCVASGITVSSNYMSWVRQAPGKGLEWVSVIYSGGSTFYADSVKGRFTISRDNSKNTLFLQMNSLTAEDTALYYCARDLHIYGLDCWGQGTLVTVSS
chain 2: DIQLTQSPSFLSASVGDRVTITCRASQGISNYLAWYQQRPGKAPKLLIYAASTLQSGVPSRFSGSASGTEFTLTISSLQPEDFATYYCQHLNSYPPVTFGGGTKVEIK
B10: C1373 (protein)
chain 1: QVQLQQWGAALLRPSETLSRTCAVYGGSFSGYYWSWIRQPPGKGLEWIGEINHSGSTNYNPSLKSRVTISVDTSKNQFSLVLSSVTAADTAVYYCARGRVFCTSTSCSFDYWGRGTLVTVSS
chain 2: DIVMTQSPDSLAVSLGERATINCKSSQSLLYSSNNKNFLAWYQQKPGQPPKLLIYWASTRESGVPDRFSGSGSGTDFTLTISSLQAEDVAVYYCQQYYSSPYTFGQGTKLEIK
B11: C1293 (protein)
chain 1: EVQLVESGGGLVQPGRSLRLSCAASGFTFEDYAMHWVRQAPGKGLEWVSGISWNSGTIDYADSVKGRFTISRDNAKNSLYLQMNSLRAEDTALYHCAKVHGSGTYLRGVFDVWGQGTMVTVSS
chain 2: EIVMTQSPATLSVSPGERASLSCRASQSVSSNLAWFQQKPGQAPRLLIYGTSTRATGIPARFSGSGSGTVFTLTISSLQSEDFAVYFCQLYNYWPPALSFGGGTKVEIK
B12: C1385 (protein)
chain 1: EVQLVESGGGLVQPGRSLRLSCAASGFTFEDYAMHWVRLAPGKGLEWVSGISWNSASMGYADSVKGRFTISRDNAKNSLYLQMSSLRTEDTALYYCTKARVTTAMVLTHFDYWGQGTLVTVSS
chain 2: B11 chain 2 with S20T, F36Y, Q38H, T51A, V70E, F87Y, L90Q, Y93N, A97K, S99T
B13: C1357 (protein)
chain 1: QVQLVQSGAEVKKPGASVKVSCKASGYTFTNHYMHWVRQAPGQGLEWMGIINPSGGSTSYAQKFQGRVTMTRDTSTNTVYMELSSLRSDDTAVYYCARDQGIIVVISGGLDYWGQGTLVTVSS
chain 2: QSALTQPRSVSGSPGQSVTISCTGTSSDVGGYNYVSWYQEHPGKAPKLMIYDVNKRPSGVPDRFSGSKSGNTASLTISGLQAEDEADYYCCSYAGSYTVVVFGGGTKLSVL
B14: C1353 (protein)
chain 1: QVQLVQSGAEVKKPGASVKVSCKASGYTFTGNYIHWVRQAPGQGLEWVGWINPNSGAANYAQKFQGRVTMTRDTSMSTAYMEVSRLRSDDTAMYYCARTYFYDRSGLPGDYWGQGTLVTVSS
chain 2: QSALTQPASVSGSPGQSITISCTGTNSDVGTYNYVSWYQQHPGKAPKLIIYEVTNRPSGVSNRFSGSKSANTASLTISGLQAEDEADYYCSSYMSNTLYVFGTGTKVSVL
B15: C1383 (protein)
chain 1: QLQLQESGPGLVKPSETLSLTCTVSGGSISSSSYYWGWIRQPPGKGLEWIGSIYYSGSTYYNPSLKSRVTISVDTSKNQFSLKLSSVTAADTAVYYCARLVRVFGSGYSRTFDYWGQGTLVTVSS
chain 2: QSALTQPRSVSGSPGQSVTISCTGTSSDVGGYNYVSWYQQHPGKAPKLMIYDVTKRPSGVPDRFSGSKSGNTASLTISGLQGEDEADYYCCSFAGTCLFGTGTKVTVL
B16: C1388 (protein)
chain 1: QVQLQESGPGLVKPSETLSLTCTVSGGSISGYYWAWIRQPPGKGLEWVGDIYSSGSTNYSPSLKSRLSISVDTSKNIFSLRLSSVSVADTAIYYCARHTNRRLSFPYFDYWGRGTLVTVSS
chain 2: EIVLTQSPATLSLSPGERATLSCRASQSINSQLAWYQQKPGQAPRLLIYDASNRVTGIPARFSGSGSGTDFTLTISSLEPEDFADYYCQQRSKWPPGITFGQGTRLEIK

Each binder was assayed against SARS-CoV-2 Wuhan-Hu-1 spike pseudovirus (assay: pseudovirus neutralization IC50; higher = weaker neutralization).
Method: (§1)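 Single-round luciferase reporter pseudovirus mixed with antibody dilutions and put on 293T-ACE2 cells for 48 h; signal relative to no-antibody wells, four-parameter fit.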
With B1 the “pseudovirus neutralization IC50” value was 0.00625 mg/L.
B2 was tested, and the “pseudovirus neutralization IC50” value was 0.108 mg/L.
With B3 the “pseudovirus neutralization IC50” value was 0.00642 mg/L.
In the case of B4, the “pseudovirus neutralization IC50” value is reported as > 1 mg/L.
B5 was tested, and the “pseudovirus neutralization IC50” value was 0.16 mg/L.
B6 was tested, and the “pseudovirus neutralization IC50” value was > 1 mg/L.
For B7, the “pseudovirus neutralization IC50” value was > 1 mg/L.
B8 was tested, and the “pseudovirus neutralization IC50” value was > 1 mg/L.
For B9, the “pseudovirus neutralization IC50” value was 0.00965 mg/L.
In the case of B10, the “pseudovirus neutralization IC50” value is reported as > 1 mg/L.
B11 was tested, and the “pseudovirus neutralization IC50” value was > 1 mg/L.
In the case of B12, the “pseudovirus neutralization IC50” value is reported as > 1 mg/L.
In the case of B13, the “pseudovirus neutralization IC50” value is reported as > 1 mg/L.
For B14, the “pseudovirus neutralization IC50” value was > 1 mg/L.
With B15 the “pseudovirus neutralization IC50” value was > 1 mg/L.
In the case of B16, the “pseudovirus neutralization IC50” value is reported as > 1 mg/L.

The binders below were run against SARS-CoV-2 Wuhan-Hu-1 spike pseudovirus (assay: pseudovirus neutralization IC90; higher = weaker neutralization).
Method: as §1
In the case of B1, the “pseudovirus neutralization IC90” value is reported as 0.0964 mg/L.
B2 was tested, and the “pseudovirus neutralization IC90” value was > 1 mg/L.
B3 was tested, and the “pseudovirus neutralization IC90” value was 0.0631 mg/L.
B4 was tested, and the “pseudovirus neutralization IC90” value was > 1 mg/L.
In the case of B5, the “pseudovirus neutralization IC90” value is reported as > 1 mg/L.
With B6 the “pseudovirus neutralization IC90” value was > 1 mg/L.
With B7 the “pseudovirus neutralization IC90” value was > 1 mg/L.
With B8 the “pseudovirus neutralization IC90” value was > 1 mg/L.
For B9, the “pseudovirus neutralization IC90” value was 0.0337 mg/L.
For B10, the “pseudovirus neutralization IC90” value was > 1 mg/L.
For B11, the “pseudovirus neutralization IC90” value was > 1 mg/L.
In the case of B12, the “pseudovirus neutralization IC90” value is reported as > 1 mg/L.
With B13 the “pseudovirus neutralization IC90” value was > 1 mg/L.
B14 was tested, and the “pseudovirus neutralization IC90” value was > 1 mg/L.
With B15 the “pseudovirus neutralization IC90” value was > 1 mg/L.
In the case of B16, the “pseudovirus neutralization IC90” value is reported as > 1 mg/L.

The binders below were run against SARS-CoV-2 Wuhan-Hu-1 spike receptor-binding domain (assay: ELISA binding EC50; higher = weaker binding; ELISA of recombinant human antibody on coated antigen, from 10 µg/ml in fourfold dilutions; four-parameter fit.).
In the case of B1, the “ELISA binding EC50” value is reported as 0.00109 mg/L.
For B2, the “ELISA binding EC50” value was 0.00207 mg/L.
For B3, the “ELISA binding EC50” value was 0.00202 mg/L.
For B4, the “ELISA binding EC50” value was 0.00403 mg/L.
With B5 the “ELISA binding EC50” value was 0.00265 mg/L.
For B6, the “ELISA binding EC50” value was 0.00179 mg/L.
B7 was tested, and the “ELISA binding EC50” value was 0.00262 mg/L.
For B8, the “ELISA binding EC50” value was 0.00329 mg/L.
B9 was tested, and the “ELISA binding EC50” value was 0.00229 mg/L.
For B10, the “ELISA binding EC50” value was 0.00819 mg/L.
In the case of B11, the “ELISA binding EC50” value is reported as 0.00204 mg/L.
For B12, the “ELISA binding EC50” value was 0.0039 mg/L.
For B13, the “ELISA binding EC50” value was 0.00611 mg/L.
In the case of B14, the “ELISA binding EC50” value is reported as > 10 mg/L.
For B15, the “ELISA binding EC50” value was 0.00264 mg/L.
For B16, the “ELISA binding EC50” value was > 10 mg/L.
